Where a name gives a salt, the structure may show the parent alone. Read-outs that look alike come from different tables or passages of the source.
Test system: IL-17 production by CD4 T cells
Test: Human Th17 Assay (IL-17 production under Th17 differentiation conditions)
[1] = read-out: Human Th17 Assay, IC50, IL-17 production, CD4 T cells, 3 days
[2] = Homo sapiens, CD4+ T, 72 h, read-out: Human Th17 Assay, IC50, IL-17 production, CD4 T cells, 3 days

| SMILES | IC50 [1] [nM] | IC50 [2] [nM] |
| --- | --- | --- |
| CC(=O)N1CCC(C(O)(c2ccc3nc(C(F)(F)F)c(Cc4ccccc4)c(Cl)c3c2)c2cncn2C)CC1 (single isomer, unassigned) [Example 115c, 1-(4-((3-Benzyl-4-chloro-2-(trifluoromethyl)quinolin-6-yl)(hydroxy)(1-methyl-1H-imidazol-5-yl)methyl)piperidin-1-yl)ethanone•TFA] | ~200 |  |
| COc1nc2ccc(C(O)(c3ccc(C)nc3C)c3cnnn3C)cc2c(Cl)c1Cc1ccc(C(F)(F)F)nc1 (single isomer, unassigned) [Example 40c, (4-Chloro-2-methoxy-3-((6-(trifluoromethyl)pyridin-3-yl)methyl)quinolin-6-yl)(2,6-dimethylpyridin-3-yl)(1-methyl-1H-1,2,3-triazol-5-yl)methanol] |  | 20 |
| COc1nc2ccc(C(N)(c3ccc(C(F)(F)F)nc3)c3cncn3C)cc2c(Cl)c1Cc1cc2ccccc2s1 (single isomer, unassigned) [Example 71b, (3-(Benzo[b]thiophen-2-ylmethyl)-4-chloro-2-methoxyquinolin-6-yl)(1-methyl-1H-imidazol-5-yl)(6-(trifluoromethyl)pyridin-3-yl)methanamine] |  | 190 |
| COc1nc2ccc(C(O)(c3cnnn3C)c3cnc(C)n3C)cc2c(C#N)c1Cc1ccc(C(F)(F)F)nc1 (single isomer, unassigned) [Example 44b, 6-((1,2-Dimethyl-1H-imidazol-5-yl)(hydroxy)(1-methyl-1H-1,2,3-triazol-5-yl)methyl)-2-methoxy-3-((6-(trifluoromethyl)pyridin-3-yl)methyl)quinoline-4-carbonitrile] | 17 |  |

Second part, the molecule after the results:

| IC50 [1] [nM] | IC50 [2] [nM] | SMILES |
| --- | --- | --- |
| 60 |  | COc1nc2ccc(C(O)(c3cccnc3)c3ccc(Cl)c(Cl)c3)cc2c(Cl)c1Cc1ccc(-n2cccn2)cc1 (single isomer, unassigned) [Example 161c, (3-(4-(1H-Pyrazol-1-yl)benzyl)-4-chloro-2-methoxyquinolin-6-yl)(3,4-dichlorophenyl)(pyridin-3-yl)methanol] |
| 22 |  | COc1nc2ccc(C(O)(c3ccc(F)cc3)c3cccnc3)cc2c(Cl)c1Cc1ccc(-n2cccn2)cc1 (single isomer, unassigned) [Example 158c, (3-(4-(1H-Pyrazol-1-yl)benzyl)-4-chloro-2-methoxyquinolin-6-yl)(4-fluorophenyl)(pyridin-3-yl)methanol] |
|  | 7.1 | COc1nc2ccc(C(O)(c3ccc(C)nc3C)c3cncn3C)cc2c(Cl)c1Cc1ccc(C(F)(F)F)cc1 (single isomer, unassigned) [Example 88c, (4-Chloro-2-methoxy-3-(4-(trifluoromethyl)benzyl)quinolin-6-yl)(2,6-dimethylpyridin-3-yl)(1-methyl-1H-imidazol-5-yl)methanol] |
| 53 |  | COc1ccc(C(O)(c2cccnc2)c2ccc3nc(OC)c(Cc4ccc(-n5cccn5)cc4)c(Cl)c3c2)cc1OC (single isomer, unassigned) [Example 159c, (3-(4-(1H-Pyrazol-1-yl)benzyl)-4-chloro-2-methoxyquinolin-6-yl)(3,4-dimethoxyphenyl)(pyridin-3-yl)methanol] |
|  | ~6000 | COc1nc2ccc(C(O)(c3ccc(F)cc3)C3CCN(C(C)=O)CC3)cc2c(Cl)c1Cc1ccc(F)cc1 (single isomer, unassigned) [Example 51b, 1-(4-((4-Chloro-3-(4-fluorobenzyl)-2-methoxyquinolin-6-yl)(4-fluorophenyl)(hydroxy)methyl)piperidin-1-yl)ethanone] |
|  | 170 | CNC(c1ccc2nc(OC)c(Cc3ccc(C(F)(F)F)cc3)c(Cl)c2c1)(c1ccc(C)nc1C)c1cnnn1C (single isomer, unassigned) [Example 121b, 1-(4-Chloro-2-methoxy-3-(4-(trifluoromethyl)benzyl)quinolin-6-yl)-1-(2,6-dimethylpyridin-3-yl)-N-methyl-1-(1-methyl-1H-1,2,3-triazol-5-yl)methanamine•TFA] |
